Laboratory results published in publication PMC4336329 (PLoS ONE, 2015).
Hit rate of the full screen: of about 310,000 compounds, about 14,000 (4.5%) showed an effect of 50% or more. Effects have a minus sign here. This is one part of the list.

Target: human ether-à-go-go-related gene (hERG) potassium channel (human, UniProt Q12809)
Assay: primary screen, population patch clamp on CHO cells stably expressing hERG
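Note: peak tail current of the secondary pulse compared with the same well before compound.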

Chain of human ether-à-go-go-related gene (hERG) potassium channel (Q12809 whole entry, looked up): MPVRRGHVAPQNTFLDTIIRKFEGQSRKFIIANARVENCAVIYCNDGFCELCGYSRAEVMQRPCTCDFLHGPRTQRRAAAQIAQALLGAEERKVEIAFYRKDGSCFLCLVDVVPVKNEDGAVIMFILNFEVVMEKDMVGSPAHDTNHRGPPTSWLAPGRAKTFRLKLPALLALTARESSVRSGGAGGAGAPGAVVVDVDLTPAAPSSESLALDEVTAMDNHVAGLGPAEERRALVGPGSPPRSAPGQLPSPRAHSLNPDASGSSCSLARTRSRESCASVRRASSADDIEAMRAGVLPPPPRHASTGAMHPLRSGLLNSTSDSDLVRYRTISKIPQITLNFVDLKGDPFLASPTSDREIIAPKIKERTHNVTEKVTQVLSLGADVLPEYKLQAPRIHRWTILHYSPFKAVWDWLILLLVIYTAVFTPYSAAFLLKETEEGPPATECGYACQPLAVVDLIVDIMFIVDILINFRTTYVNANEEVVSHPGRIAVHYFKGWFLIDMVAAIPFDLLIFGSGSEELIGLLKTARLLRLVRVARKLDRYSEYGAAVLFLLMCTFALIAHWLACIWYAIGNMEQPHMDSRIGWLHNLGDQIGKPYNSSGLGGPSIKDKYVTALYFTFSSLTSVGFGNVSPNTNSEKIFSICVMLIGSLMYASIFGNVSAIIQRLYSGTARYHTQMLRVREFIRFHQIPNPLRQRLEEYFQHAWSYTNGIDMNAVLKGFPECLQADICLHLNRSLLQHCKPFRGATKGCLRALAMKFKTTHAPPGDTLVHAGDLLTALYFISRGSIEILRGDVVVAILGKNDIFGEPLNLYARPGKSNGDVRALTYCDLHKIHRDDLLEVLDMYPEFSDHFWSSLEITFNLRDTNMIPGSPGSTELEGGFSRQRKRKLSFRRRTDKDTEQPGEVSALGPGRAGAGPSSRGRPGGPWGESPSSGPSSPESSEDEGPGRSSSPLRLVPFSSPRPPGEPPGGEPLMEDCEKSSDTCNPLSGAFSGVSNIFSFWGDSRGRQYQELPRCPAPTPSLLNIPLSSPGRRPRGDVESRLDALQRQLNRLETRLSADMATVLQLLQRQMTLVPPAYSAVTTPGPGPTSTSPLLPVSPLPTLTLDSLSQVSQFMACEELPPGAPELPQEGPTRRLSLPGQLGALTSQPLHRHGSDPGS

Row | Compound | hERG current change (%, negative = inhibition) at 10uM
1 | O=C(C(=O)N1CCCCCC1)c1c[nH]c2ccccc12 | 13.4%
2 | CCOc1ccc(NCCC(O)c2ccc(F)cc2)cc1 (stereo not shown) | 10.7%
3 | O=C1CCCN1CCC1CCN(C2CC(=O)N(Cc3ccc(N4CCCC4=O)cc3)C2=O)CC1 (stereo not shown) | 4.97%
4 | CCOc1cccc(N2C(=O)CC(N3CCN(c4nc5ccccc5s4)CC3)C2=O)c1 (stereo not shown) | 5.09%
5 | COc1cccc(NC(=O)N2CCC(C(=O)Nc3ccc(C)cc3C)CC2)c1 | -1.33%
6 | CCOC(=O)c1c(NC(=S)NC(=O)c2ccc(Cn3cc(Cl)cn3)o2)sc2c1CCC(C)C2 (stereo not shown) | 36.7%
7 | COc1ccc(C(=O)NC(Nc2ccccc2)C(Cl)(Cl)Cl)cc1 (stereo not shown) | 9.54%
8 | O=C(CSC1=NC(=O)C(c2ccccc2)C(=O)N1)Nc1cccc(Cl)c1 (stereo not shown) | 19.7%
9 | CC(C)(C)c1nnc2sc(SCC(=O)N3CCc4ccccc43)nn2c1=O | -1.23%
10 | O=C(CCn1nc(-c2ccccc2)ccc1=O)N1CCN(c2ccccc2)CC1 | -11.2%
11 | COc1cc(/C=N/OCC(=O)NC2CCCCC2)ccc1OCc1ccccc1 | -4.13%
12 | CCOc1ccc(NC(=O)CCCCCN2C(=O)[C@@H]3Cc4ccccc4CN3C2=O)cc1 | 2.76%
13 | Fc1ccc(C(c2nnnn2Cc2cccs2)N2CCN(C3CCCCC3)CC2)cc1 (stereo not shown) | -60.3%
14 | CCOC(=O)CNC(=O)CSc1ncccc1-c1nc2ccccc2[nH]1 | -0.362%
15 | Cc1nc(Cl)nc(N(C)c2ccccc2)c1[N+](=O)[O-] | -3.35%
16 | Cc1cccc(C(=O)OCC(=O)N2CCC(c3ccccc3)=N2)c1O | 10.1%
17 | COc1ccc(S(=O)(=O)n2cnc3cc(C)c(C)cc32)cc1 | 2.4%
18 | COc1ccc(Nc2cc(Nc3ccccc3)ncn2)cc1 | 11.5%
19 | O=C(OCCN1C(=O)c2ccccc2C1=O)c1ccco1 | 7.21%
20 | COc1cc(OC)cc(-c2nnc(SCC(=O)NCc3cccs3)o2)c1 | 0.461%
21 | Cc1ccc(C(=O)NN2C(=O)c3ccc(S(=O)(=O)c4ccc(C(=O)O)cc4)cc3C2=O)cc1 | 12.1%
22 | O=C(COc1ccccc1Cl)NC(=S)Nc1cccc(NC(=O)c2ccccc2Cl)c1 | 23%

Row | Compound | hERG current change (%, negative = inhibition) at 10uM
23 | CC(C)(C)c1ccc(C(=O)NCC(=O)N2CCC3(CC2)NCCc2[nH]cnc23)cc1 | 18.4%
24 | CC(C)c1ccccc1NC(=S)NC1CCCCC1 | -0.714%
25 | CCc1ccc(NC(=O)CN(c2ccccc2)S(=O)(=O)N(C)C)cc1 | -5.75%
26 | Cc1ccc2[nH]c(=O)c(CN(Cc3ccco3)C(=O)N3CCOCC3)cc2c1 | -0.449%
27 | O=C(NCCc1ccccc1F)N[C@@H](Cc1ccccc1)C(=O)O | 4.11%
28 | CN(C(=O)COC(=O)COc1ccc2c(c1)CCC2)c1c(N)n(Cc2ccccc2)c(=O)[nH]c1=O | -6.4%
29 | O=C(COC(=O)Cn1cnc2ccccc21)Nc1cccc2c1C(=O)c1ccccc1C2=O | 5.16%
30 | Cc1ccc(S(=O)(=O)NCCN2CCOCC2)s1 | 11.4%
31 | CC/C(=N\OC(=O)c1ccc(OC(C)C)cc1)c1ccc(C)cc1 | 16.5%
32 | CCOc1ccc(Oc2ccc(NS(=O)(=O)c3cc(C(=O)O)ccc3Cl)cc2)cc1 | 9.19%
33 | CCOC(=O)N1CCN(C(=O)Nc2cccc(Cl)c2)CC1 | 2.81%
34 | C=CCNc1nc(Nc2ccc(Cl)cc2)nc(OC)n1 | -16.7%
35 | Cc1ccc(CNC(=O)Nc2ccccc2)c(C)c1 | 5.7%
36 | O=C(O)c1cnc(-c2ccccc2)nc1Oc1ccc(Cl)cc1 | 15.7%
37 | O=C1CN(C(=O)N[C@@H](Cc2ccccc2)C(=O)N[C@H](Cc2ccccc2)C(=O)O)c2ccccc2N1 | 22.4%
38 | Cc1cc(Cl)ccc1Oc1ncnc2oc(-c3ccccc3)cc12 | -0.172%
39 | COC(=O)c1ccc(C(=O)OC)c(NC(=S)N2CCCC2)c1 | -2.93%
40 | CC(=O)Nc1ccc(N=Cc2c(O)n(Cc3ccco3)c(=O)[nH]c2=O)cc1 | -4.6%
41 | Cc1ccccc1OCC(=O)Nc1ccccc1N1CCC(C)CC1 | 18.3%
42 | CCN(CC)CCNC(=O)CNC(=O)c1nn(-c2ccc(OC)cc2OC)c(=O)c2ccccc12 | -16.1%
43 | COc1ccc(CN(C(=O)c2ccc(-c3ccccc3)[nH]2)C(C(=O)NC(C)(C)C)c2ccncc2)cc1 (stereo not shown) | 1.1%
